Measured values as given in the supplement of paper PMC4604168 (melanoma cell lines).
The other results are listed elsewhere or left out. Many values rest on one well or one pass, so single values are uncertain.

system: IST-MEL1; experiment: cell count relative to DMSO control; melanoma cells; higher = more viable cells; conditions: library dose: low library concentration; 72 h
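Further: cell number obtained by counting DAPI-stained nuclei in high-throughput microscope images with image analysis software, screen run in 1,536-well plates.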

SMILES	cell count [%]
Nc1ncn([C@H]2C[C@H](O)[C@@H](CO)O2)c(=O)n1 [decitabine] + C/C(O)=C(\C#N)C(=O)Nc1cc(Br)ccc1Br [LFM-A13] (first compound 0.1 µM, partner dose 2 µM)	95
CCCCCCCCc1ccc(CCC(N)(CO)CO)cc1 [fingolimod] + C/C(O)=C(\C#N)C(=O)Nc1cc(Br)ccc1Br [LFM-A13] (first compound 2 µM, partner dose 2 µM)	96.6
CC[C@]1(O)C[C@H]2CN(CCc3c([nH]c4ccccc34)[C@@](C(=O)OC)(c3cc4c(cc3OC)N(C=O)[C@H]3[C@@](O)(C(=O)OC)[C@H](OC(C)=O)[C@]5(CC)C=CCN6CC[C@]43[C@@H]65)C2)C1 [vincristine] + Cc1cc(SCc2sc(-c3ccc(C(F)(F)F)c(F)c3)nc2C)ccc1OCC(=O)O [GW0742] (first compound 0.0001 µM, partner dose 2 µM)	98.3
Cc1ccc(Nc2nccc(N(C)c3ccc4c(C)n(C)nc4c3)n2)cc1S(N)(=O)=O [Pazopanib] + C/C(O)=C(\C#N)C(=O)Nc1cc(Br)ccc1Br [LFM-A13] (first compound 0.4 µM, partner dose 2 µM)	105
COc1cc([C@@H]2c3cc4c(cc3[C@@H](O[C@@H]3O[C@@H]5CO[C@@H](C)O[C@H]5[C@H](O)[C@H]3O)[C@H]3COC(=O)[C@H]23)OCO4)cc(OC)c1O [etoposide] + Cc1cc(SCc2sc(-c3ccc(C(F)(F)F)c(F)c3)nc2C)ccc1OCC(=O)O [GW0742] (first compound 0.02 µM, partner dose 2 µM)	105
Cc1cc(Nc2cc(N3CCN(C)CC3)nc(/C=C/c3ccccc3)n2)n[nH]1 + Cc1cc(SCc2sc(-c3ccc(C(F)(F)F)c(F)c3)nc2C)ccc1OCC(=O)O [GW0742] (first compound 0.04 µM, partner dose 2 µM)	105
Cn1cnc2c(F)c(Nc3ccc(Br)cc3Cl)c(C(=O)NOCCO)cc21 [selumetinib] + C/C(O)=C(\C#N)C(=O)Nc1cc(Br)ccc1Br [LFM-A13] (first compound 0.015 µM, partner dose 2 µM)	89.9
NC(=O)c1ccc(N(C(N)=O)c2c(F)cccc2F)nc1-c1ccc(F)cc1F + C/C(O)=C(\C#N)C(=O)Nc1cc(Br)ccc1Br [LFM-A13] (first compound 0.4 µM, partner dose 2 µM)	92.7
O=C(O)[C@@H]1[O][Sb](=[O])([O][Sb]2(=[O])[O][C@H]([C@H](O)CO)[C@H](O)[C@H](C(=O)O)[O]2)[O][C@H]([C@H](O)CO)[C@@H]1O (stereo partly specified) [stibogluconate] + O=C(Oc1ccc([N+](=O)[O-])cc1)N1CCC(C(O)(c2ccc3c(c2)OCO3)c2ccc3c(c2)OCO3)CC1 [JZL184] (first compound 2 µM, partner dose 1 µM)	96.7
Cc1ccc(Nc2nccc(N(C)c3ccc4c(C)n(C)nc4c3)n2)cc1S(N)(=O)=O [Pazopanib] + O=C(Oc1ccc([N+](=O)[O-])cc1)N1CCC(C(O)(c2ccc3c(c2)OCO3)c2ccc3c(c2)OCO3)CC1 [JZL184] (first compound 0.4 µM, partner dose 1 µM)	102
CNC(=O)c1cc(Oc2ccc(NC(=O)Nc3ccc(Cl)c(C(F)(F)F)c3)cc2)ccn1 [sorafenib] + O=C(Oc1ccc([N+](=O)[O-])cc1)N1CCC(C(O)(c2ccc3c(c2)OCO3)c2ccc3c(c2)OCO3)CC1 [JZL184] (first compound 0.4 µM, partner dose 1 µM)	110
CNC(=O)c1cc(Oc2ccc(NC(=O)Nc3ccc(Cl)c(C(F)(F)F)c3)cc2)ccn1 [sorafenib] + C/C(O)=C(\C#N)C(=O)Nc1cc(Br)ccc1Br [LFM-A13] (first compound 0.4 µM, partner dose 2 µM)	103
CCCS(=O)(=O)Nc1ccc(F)c(C(=O)c2c[nH]c3ncc(Cl)cc23)c1F + O=C(Oc1ccc([N+](=O)[O-])cc1)N1CCC(C(O)(c2ccc3c(c2)OCO3)c2ccc3c(c2)OCO3)CC1 [JZL184] (first compound 0.08 µM, partner dose 1 µM)	92.7
CCCCCCCCc1ccc(CCC(N)(CO)CO)cc1 [fingolimod] + O=C(Oc1ccc([N+](=O)[O-])cc1)N1CCC(C(O)(c2ccc3c(c2)OCO3)c2ccc3c(c2)OCO3)CC1 [JZL184] (first compound 2 µM, partner dose 1 µM)	101
Cc1cn(-c2cc(NC(=O)c3ccc(C)c(Nc4nccc(-c5cccnc5)n4)c3)cc(C(F)(F)F)c2)cn1 [nilotinib] + O=C(Oc1ccc([N+](=O)[O-])cc1)N1CCC(C(O)(c2ccc3c(c2)OCO3)c2ccc3c(c2)OCO3)CC1 [JZL184] (first compound 0.2 µM, partner dose 1 µM)	106
CN(c1ncccc1CNc1nc(Nc2ccc3c(c2)CC(=O)N3)ncc1C(F)(F)F)S(C)(=O)=O + Cc1cc(SCc2sc(-c3ccc(C(F)(F)F)c(F)c3)nc2C)ccc1OCC(=O)O [GW0742] (first compound 0.08 µM, partner dose 2 µM)	93.1

SMILES	cell count [%]
C[C@@H](Oc1cc(-c2cnn(C3CCNCC3)c2)cnc1N)c1c(Cl)ccc(F)c1Cl [Crizotinib] + Cc1cc(SCc2sc(-c3ccc(C(F)(F)F)c(F)c3)nc2C)ccc1OCC(=O)O [GW0742] (first compound 0.2 µM, partner dose 2 µM)	106
O=c1[nH]nc(Sc2ncc([N+](=O)[O-])s2)n1-c1ccc2c(c1)OCCO2 + Cc1cc(SCc2sc(-c3ccc(C(F)(F)F)c(F)c3)nc2C)ccc1OCC(=O)O [GW0742] (first compound 0.2 µM, partner dose 2 µM)	95.3
CC[C@]1(O)C[C@H]2CN(CCc3c([nH]c4ccccc34)[C@@](C(=O)OC)(c3cc4c(cc3OC)N(C=O)[C@H]3[C@@](O)(C(=O)OC)[C@H](OC(C)=O)[C@]5(CC)C=CCN6CC[C@]43[C@@H]65)C2)C1 [vincristine] + O=C(Oc1ccc([N+](=O)[O-])cc1)N1CCC(C(O)(c2ccc3c(c2)OCO3)c2ccc3c(c2)OCO3)CC1 [JZL184] (first compound 0.0001 µM, partner dose 1 µM)	109
CC(=O)c1c(C)c2cnc(Nc3ccc(N4CCNCC4)cn3)nc2n(C2CCCC2)c1=O [palbociclib] + C/C(O)=C(\C#N)C(=O)Nc1cc(Br)ccc1Br [LFM-A13] (first compound 0.04 µM, partner dose 2 µM)	84.5
CN(c1ncccc1CNc1nc(Nc2ccc3c(c2)CC(=O)N3)ncc1C(F)(F)F)S(C)(=O)=O + C/C(O)=C(\C#N)C(=O)Nc1cc(Br)ccc1Br [LFM-A13] (first compound 0.08 µM, partner dose 2 µM)	97.7
O=C(Nc1cc(C(F)(F)F)cc(C(F)(F)F)c1)c1cc(Cl)ccc1O + C/C(O)=C(\C#N)C(=O)Nc1cc(Br)ccc1Br [LFM-A13] (first compound 0.016 µM, partner dose 2 µM)	86.5
N#CC[C@H](C1CCCC1)n1cc(-c2ncnc3[nH]ccc23)cn1 [ruxolitinib] + C/C(O)=C(\C#N)C(=O)Nc1cc(Br)ccc1Br [LFM-A13] (first compound 1 µM, partner dose 2 µM)	92.6
O=C(/C=C/c1cccnc1)NCCCCC1CCN(C(=O)c2ccccc2)CC1 + C/C(O)=C(\C#N)C(=O)Nc1cc(Br)ccc1Br [LFM-A13] (first compound 0.01 µM, partner dose 2 µM)	65.6
Cn1cnc2c(F)c(Nc3ccc(Br)cc3Cl)c(C(=O)NOCCO)cc21 [selumetinib] + O=C(Oc1ccc([N+](=O)[O-])cc1)N1CCC(C(O)(c2ccc3c(c2)OCO3)c2ccc3c(c2)OCO3)CC1 [JZL184] (first compound 0.015 µM, partner dose 1 µM)	94.7
Nc1ncn([C@H]2C[C@H](O)[C@@H](CO)O2)c(=O)n1 [decitabine] + O=C(Oc1ccc([N+](=O)[O-])cc1)N1CCC(C(O)(c2ccc3c(c2)OCO3)c2ccc3c(c2)OCO3)CC1 [JZL184] (first compound 0.1 µM, partner dose 1 µM)	95.1
O=C(/C=C/c1cccnc1)NCCCCC1CCN(C(=O)c2ccccc2)CC1 + Cc1cc(SCc2sc(-c3ccc(C(F)(F)F)c(F)c3)nc2C)ccc1OCC(=O)O [GW0742] (first compound 0.01 µM, partner dose 2 µM)	76.2
CS(=O)(=O)c1ccc(C(=O)Nc2ccc(Cl)c(-c3ccccn3)c2)c(Cl)c1 [vismodegib] + C/C(O)=C(\C#N)C(=O)Nc1cc(Br)ccc1Br [LFM-A13] (first compound 1 µM, partner dose 2 µM)	97.7
CS(=O)(=O)CCNCc1ccc(-c2ccc3ncnc(Nc4ccc(OCc5cccc(F)c5)c(Cl)c4)c3c2)o1 [lapatinib] + Cc1cc(SCc2sc(-c3ccc(C(F)(F)F)c(F)c3)nc2C)ccc1OCC(=O)O [GW0742] (first compound 0.8 µM, partner dose 2 µM)	87.8
NC1(c2ccc(-c3nc4ccn5c(=O)[nH]nc5c4cc3-c3ccccc3)cc2)CCC1 + C/C(O)=C(\C#N)C(=O)Nc1cc(Br)ccc1Br [LFM-A13] (first compound 0.4 µM, partner dose 2 µM)	99.3
CC(=O)c1c(C)c2cnc(Nc3ccc(N4CCNCC4)cn3)nc2n(C2CCCC2)c1=O [palbociclib] + O=C(Oc1ccc([N+](=O)[O-])cc1)N1CCC(C(O)(c2ccc3c(c2)OCO3)c2ccc3c(c2)OCO3)CC1 [JZL184] (first compound 0.04 µM, partner dose 1 µM)	81.7
